# The whole screen tested about 310,000 compounds, of which about 14,000 (4.5%) showed an effect of 50% or more. Effects have a minus sign here. The list shows a part of the results.
# Target: human ether-à-go-go-related gene (hERG) potassium channel (human, UniProt Q12809)
# Experiment: primary screen, population patch clamp on CHO cells stably expressing hERG
# 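Also: peak tail current of the secondary pulse compared with the same well before compound.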
# Chain of human ether-à-go-go-related gene (hERG) potassium channel (Q12809 whole entry, looked up): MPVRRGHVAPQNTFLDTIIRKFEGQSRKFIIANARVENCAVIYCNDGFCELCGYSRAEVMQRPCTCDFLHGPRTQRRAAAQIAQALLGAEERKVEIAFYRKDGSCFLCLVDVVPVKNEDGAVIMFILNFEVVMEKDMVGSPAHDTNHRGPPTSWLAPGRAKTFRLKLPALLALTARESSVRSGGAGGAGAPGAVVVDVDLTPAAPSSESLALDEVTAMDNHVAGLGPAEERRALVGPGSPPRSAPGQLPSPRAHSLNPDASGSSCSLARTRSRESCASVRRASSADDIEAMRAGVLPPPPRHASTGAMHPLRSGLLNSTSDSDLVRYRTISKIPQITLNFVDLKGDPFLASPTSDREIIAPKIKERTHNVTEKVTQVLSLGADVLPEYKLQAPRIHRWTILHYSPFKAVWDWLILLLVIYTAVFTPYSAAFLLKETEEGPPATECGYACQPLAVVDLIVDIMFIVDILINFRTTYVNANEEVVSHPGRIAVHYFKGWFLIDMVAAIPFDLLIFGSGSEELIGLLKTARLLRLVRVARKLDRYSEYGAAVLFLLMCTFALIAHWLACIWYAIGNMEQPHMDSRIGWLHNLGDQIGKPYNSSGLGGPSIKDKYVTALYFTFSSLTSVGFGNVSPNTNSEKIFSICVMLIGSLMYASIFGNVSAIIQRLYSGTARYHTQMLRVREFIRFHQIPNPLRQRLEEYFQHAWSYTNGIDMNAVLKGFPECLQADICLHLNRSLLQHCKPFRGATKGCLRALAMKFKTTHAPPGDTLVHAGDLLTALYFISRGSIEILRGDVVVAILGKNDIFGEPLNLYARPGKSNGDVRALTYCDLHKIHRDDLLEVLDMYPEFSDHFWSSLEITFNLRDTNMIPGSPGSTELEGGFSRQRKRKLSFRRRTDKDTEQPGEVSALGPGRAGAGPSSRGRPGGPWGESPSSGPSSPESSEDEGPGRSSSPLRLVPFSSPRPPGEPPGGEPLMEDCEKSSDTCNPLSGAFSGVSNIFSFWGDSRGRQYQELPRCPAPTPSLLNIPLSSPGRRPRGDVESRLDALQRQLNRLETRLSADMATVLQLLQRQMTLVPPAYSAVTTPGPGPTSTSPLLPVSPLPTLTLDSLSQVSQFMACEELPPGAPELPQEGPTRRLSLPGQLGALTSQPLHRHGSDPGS
row,Compound,"hERG current change (%, negative = inhibition) at 10uM [%]"
1,COc1ccc(N(CCOc2ccccc2)S(=O)(=O)c2ccccc2)cc1,-4.39
2,Cn1c(=NC(=O)C(C)(C)C)sc2cccc(F)c21,4.8
3,COc1ccccc1NC(=O)c1ccccc1NS(=O)(=O)c1cccs1,10.8
4,CCn1cc(CN2CCC(n3nccc3NC(=O)c3ccc4c(c3)OCO4)CC2)c(C)n1,7.01
5,Cc1cccnc1NC(=O)CCCNC(=O)c1ccc(Cl)cc1,-10.3
6,COc1ccc(CCC(=O)NC2CCCCC2)cc1,-29.9
7,CN(C)S(=O)(=O)c1ccc(NC(=O)CN2CCN(C(c3ccccc3)c3ccccc3)CC2)cc1,12
8,Cc1ccccc1NS(=O)(=O)c1ccc(C(=O)N2CCN(c3ccccn3)CC2)cc1,-19.7
9,COc1ccc(/C=C/C(=O)c2ccc(NC3=NCCCS3)cc2)cc1OC,-37.7
10,COc1ccc(S(=O)(=O)NNc2nc(C)cc(C)n2)cc1Br,2.02
11,Cl.O=[N+]([O-])c1cc(Cl)cc(C2=NCCN2)c1,-18.8
12,c1csc(-c2ncc3ccccn23)c1,-2.73
13,O=C(Nc1ccnn1C1CCN(Cc2cc(Cl)ccc2O)CC1)c1cccnc1,-9.31
14,O=C(CSc1nnc(NC(=O)c2c(F)cccc2Cl)s1)Nc1ccccc1F,6.5
15,Cc1c(Cl)cccc1NC(=O)CCN1CCN(C)CC1,2.09
16,COc1ccc(Cl)cc1NS(=O)(=O)c1c(C)nc2sccn2c1=O,-0.862
17,CN(c1ccccc1C(=O)N1CCc2ccccc2C1)S(C)(=O)=O,-7.88
18,CS(=O)(=O)NN1C(=O)c2ccccc2NC12CCCC2,10.2
19,Cc1ccc(CNC(=O)C2CC(c3cccc([N+](=O)[O-])c3)=NO2)o1 (centres unmarked),-16.3

row,Compound,"hERG current change (%, negative = inhibition) at 10uM [%]"
1,NNC(=O)c1oc2nc(-c3ccccc3)cc(-c3ccccc3)c2c1N,17.8
2,CC(C)CN1CCN(Cc2ccc(F)cc2Cl)CC1CCO (centres unmarked),-34.4
3,CCOC(=O)C(CC)Sc1nc2c(c(=O)[nH]c(=O)n2C)n1C/C=C(/C)Cl (centres unmarked),-82
4,CCc1ccc(C(=O)C(C)OC(=O)Cn2[nH]c(=O)c3ccccc3c2=O)cc1 (centres unmarked),10.8
5,O=C(COC(=O)c1cc(S(=O)(=O)N2CCOCC2)c(Cl)cc1Cl)c1ccc[nH]1,11.5
6,COc1cc(Cl)ccc1NC(=S)N(CCN(C)C)C(C)c1ccncc1 (centres unmarked),-39.2
7,CCN(CC)CCN1C(=O)C2C(C(=O)Nc3cccc(C)c3)C3C=CC2(O3)C1C(=O)NC1CCCC(C)C1C (centres unmarked),-21.6
8,Cc1cccc(OCC(O)CN2CCN(C3CCCCC3)CC2)c1.Cl (centres unmarked),-50.3
9,COc1ccnc(Oc2ccc(F)cc2)c1-c1ncn[nH]1,24.3
10,NC(=O)CN1CCOCCN(CC(N)=O)CCOCC1,18.1
11,CCOc1ccc(N=Cc2c(O)n(-c3ccc(C)c(C)c3)c(=O)[nH]c2=O)cc1,-1.8
12,Cc1ccc(C)c(N(CC(=O)NCc2ccco2)C(=O)CCC(=O)Nc2nccs2)c1,1.35
13,NC[C@@H]1O[C@H](O[C@H]2[C@@H](O)[C@H](O[C@@H]3[C@@H](O)[C@H](N)C[C@H](N)[C@H]3O[C@H]3O[C@H](CO)[C@@H](O)[C@H](O)[C@H]3N)O[C@@H]2CO)[C@H](N)[C@@H](O)[C@@H]1O.O=S(=O)(O)O,22.9
14,COC(=O)NNC(=O)c1ccc(C(C)(C)C)cc1,19.4
15,O=C(NNC(=O)c1ccccc1Br)c1ccccc1Cl,17.8
16,COc1ccccc1NC(=O)Nc1ccnn1C1CCCCC1,-12.7
17,CCC(=O)c1ccc(OCC(O)CNC2CCCC2)cc1 (centres unmarked),2.52
18,COc1cc(C(=O)N2CCN(C(=O)C3CC3)CC2)cc(OC)c1OC,3.78
19,Cc1ccc2cc(C(c3nnnn3C(C)(C)C)N3CCCCCC3)c(=O)[nH]c2c1 (centres unmarked),-7.34

row,Compound,"hERG current change (%, negative = inhibition) at 10uM [%]"
1,CCOc1ccc2c(C)nc(NC3=NC(C)(C)C=C(C)N3)nc2c1,-45
2,O=C(CN1C(=O)C2C3C=CC(C3)C2C1=O)NCCN1CCCc2ccccc21 (centres unmarked),-2.92
3,CC(C#N)CCC#N (centres unmarked),21.7
4,CCOC(=O)Cc1csc(NC(NC(=O)OCC)(C(=O)OCC)C(F)(F)F)n1 (centres unmarked),0.51
5,CC(=O)Nc1ccc(S(=O)(=O)N(C)CC(=O)OCC(=O)N2CCCCC2)cc1,-1.43
6,CCn1c(CC(=O)Nc2ccccc2)n[nH]c1=S,25.4
7,COc1ccc(C(=O)COc2ccc(C)cc2NC(C)=O)cc1,7.08
8,Cc1ccc(-c2nnn(CC(=O)Nc3ccccc3N3CCOCC3)n2)cc1,3.14
9,CCCCn1c(=O)c(-[n+]2ccccc2)c([O-])c2ccccc21,-1.71
10,CCCCCCSc1cc(-c2nc3cnccn3c2NCc2ccccc2)ccc1OC.O=C(O)C(F)(F)F,0.374
11,Cc1cccc(C(=O)Nc2ccc(C(=O)/C=C/c3cccs3)cc2)c1,7.48
12,COC(=O)c1cc(Br)c(=O)n(-c2ccc(OC)cc2)c1,-0.31
13,CN(C1CCCCC1)S(=O)(=O)c1cc2c3c(c1)CCN3C(=O)CC2,-16.2
14,O=C(c1ccc(N2CCCCCC2)c([N+](=O)[O-])c1)N1CCC2(CC1)OCCO2,-22
15,COc1ccccc1NC(=S)NCC1CCCO1 (centres unmarked),8.94
16,C/C(Cc1ccccc1)=N\NC(=O)CNC(=O)Cc1ccccc1,15.2
17,O=c1[nH]c(CS(=O)(=O)c2ccccc2)nc2ccccc12,0.89
18,CCOC(=O)C1(Cc2cccc(OC)c2)CCCN(C(=O)c2cc(CC(C)C)[nH]n2)C1 (centres unmarked),-8.21
